Assay results as given in paper PMC13613228 (Journal of Biochemistry, 2026).

B1: human HRI N-terminal domain ([…]) (domain or fragment)
chain: not shown
B2: human HRI lacking the C-terminal coiled-coil ([…]), phosphorylated form (domain or fragment)
chain: not shown
modifications: phosphorylated form (HRI expressed in E. coli is extensively phosphorylated); sites not mapped in this paper
B3: dephosphorylated human HRI lacking the C-terminal coiled-coil ([…]) (domain or fragment)
chain: not shown

Target: the molecule itself
Experiment: AUC

Stoichiometry N, 2:
B1
B2
B3
